Measurements as given in EPA's CvTdb concentration-time database.
The source gives many values for each of these; only a part stands here.

Tests used:
Assay in all cases: concentration in plasma after dosing
Rat [1] = details: dosed: Methyleugenol, oral
Rat [2] = details: dosed: Methyleugenol, 150 mg/kg, oral, Female, F344
Rat [3] = details: dosed: Methyleugenol, 150 mg/kg, oral, Female, F344/N
Rat [4] = details: dosed: Methyleugenol, 150 mg/kg, oral, Male, F344/N
Rat [5] = details: dosed: Methyleugenol, 150 mg/kg, oral, Female, F344/N; remark: listed apart in the source
Rat [6] = details: dosed: Methyleugenol, 37 mg/kg, oral, Female, F344/N
Rat [7] = details: dosed: Methyleugenol, 150 mg/kg, oral, Male, F344/N; remark: listed apart in the source

C=CCc1ccc(OC)c(OC)c1 [Methyleugenol]
concentration in plasma [ng/mL], Rat [1]
Details	37 mg/kg	75 mg/kg	150 mg/kg
1 h, Female, F344	–	–	619
1 h, Female, F344/N	–	–	1260
1 h, Male, F344	–	–	1820
1 h, Male, F344/N	–	–	743
1.5 h, Female, F344	–	222	1140
1.5 h, Female, F344/N	64.3	92.9	2230
1.5 h, Male, F344	56	583	959
1.5 h, Male, F344/N	–	–	731
2 h, Female, F344	69	201	379
2 h, Female, F344/N	13.8	17.7	1620
2 h, Male, F344	82	508	531
2 h, Male, F344/N	–	211	–
3 h, Female, F344/N	216	48.8	–
4 h, Female, F344	–	70	260
4 h, Female, F344/N	–	64.8	1390
4 h, Male, F344	–	–	1240
4 h, Male, F344/N	–	151	393
5 h, Female, F344/N	9.6	265	855
5 h, Male, F344/N	–	118	1500
6 h, Female, F344	–	–	180
6 h, Female, F344/N	–	193	802
6 h, Male, F344	–	108	427
6 h, Male, F344/N	–	83.5	803
8 h, Female, F344/N	7.94	–	361
8 h, Male, F344/N	–	254	720
12 h, Female, F344/N	–	9.22	37.5
12 h, Male, F344/N	–	13.6	36.5
24 h, Male, F344/N	–	–	12.7

Details	concentration in plasma [ng/mL]
Rat [2], 5 min	16400
Rat [2], 6 h	63
Rat [3], 4.75 h	260
Rat [3], 5 min	6290
Rat [4], 5 min	960
Rat [4], 8 h	255
Rat [5], 6 h	384
Rat [5], 10 min	2710
Rat [6], 0.5 h	490
Rat [6], 4 h	14.5
Rat [7], 0.5 h	2520
Rat [7], 8 h	183
